In the RNAGym collection of RNA variant scans (doi:10.7554/elife.90254) one finds self-cleavage data, which are given here for 39 variants.

B1: LINE1-full (parent)
chain: UACGUAGGUGGUUUUCCCCUGAUAGUGCUAAGGGGGCCUGGAAGUUUGGACUGGGCAGAGCUCAACACAGCGUGGCAAAGUGGCUGUGGCUAGACUGCCUCUCUGGAUUCCUCGUCACUCAGCAGGGCAUCUCUGAGAGAAAUGCC

The source gives no read counts; variants with many changes may rest on few reads.

Variants of B1 are the subject of the data set. The data set is described as follows: self-cleavage, relative activity (ratio to wild type); higher = more cleavage; in vitro, sequencing; the parent is a self-cleaving ribozyme.
Regarding UACGUAGGUGGCUUUCCCCUGAUAGUGCUAAGGGGGCCUGGAAGUUUGGACUGGGCAGAGCCCAACACAGCGUGGCAAAGCGGCUGUGGCUAGACUGCCUCUCUGGAUUCCUCUUCACUCAGCUGGGCAUCUCUGAGAGAAAUGCC [U12C U62C U81C G114U A124U], the self-cleavage amounted to 0.11.
With UACGUAGGUGGCUUUCCCCUGAUAGUGCUAAGGGGGCCUGGAAGUUUGGACUGGGCAGAGCUCAACACAGCGUGGCAAAGUGGCUGUGGCUAGACUGCCUCUCUGGAUCCCUUGUCACUCAGCAGGGCAUCUCUGAGAGAAAUGCC [U12C U109C C113U], the self-cleavage came to 0.62.
In the case of UACGUAGGUGGCUUUCCCCUGAUAGUGCUAAGGGGGCCUGGAAGUUUGGACUGGGCAGAGCUCAACACAGCGUGGCAAAGCGGCAGUGGCUAGACUGCCUCUCUGGAUUCCUCGUCACUCAGCAGGGCAUCUCUGAGAGAAAUGCC [U12C U81C U85A], the self-cleavage amounted to 0.
Then UACGUAGGUGGCUUUCCCCUGAUAGUGCUAAGGGGGCCUGGAAGUUUGGACUGGGCAGAGCUCAACACAGCGCGGCAAAGUGGCUGUGGCUAGACUGCCUCUCUGGAUUCCUAGUCACUCAGCAGGGCAUCUCUGAGAGAGAUGCC [U12C U73C C113A A141G], with 1.99; and UACGUAGGUGGCUUUCCCCUGAUAGUGCUAAGGGGGCCUGGAAGUUUGGACUGGGCAGAGCUCAACACAGCGUGGCAAAGUGGCCGUGGCUAGACUGCCUCUCUGGAUUCCUCGUCACUCAGCAGGGCAUCACUGAGAGAAAUGCC [U12C U85C U132A], with 0.3.
Then UACGUAGGUGGCUUUCCCCUGAUAGUGCUAAGGGGGCCUGGAAGUUUGGACUGGGCAGAGCUCAACACAGCGUGGCAAAGUGGCCGUGGCUAGACUGCCUCUCUGGAUUCCUCGUCACUCAGCAGGGCAUCUUUGAGAGAAAUGCC [U12C U85C C133U], with 0.12.
Consider UACGUAGGUGGCUUUCCCCUGAUAGUGCUAAGGGGGCCUGGAAGUUUGGACUGGGCAGAGCUCAACACAGCGCGGCAAAGUGGCUGUGGCUAGACUGCCUCUCUGGAUUCCUCGUCACUCAGCAGGGCAACUCUGAGAGAAAUGCC [U12C U73C U130A], for which the self-cleavage was determined as 2.3.
As for UACGUAGGUGGCUUUCCCCUGAUAGUGCUAAGGGGGCCUGGAAGUUUGGACUGGGCAGAGCUCAACACAGCGCGGCAAAGUGGCUGUGGCUAGACUGCCUCUCUGGAUUCCUCGUCACUCAGCAGGGCAUCUCUGGGAGAAAUGCC [U12C U73C A136G], the figure is 0.51; as for UACGUAGGUGGCUUUCCCCUGAUAGUGCUAAGGGGGCCUGGAAGUUUGGACUGGGCAGAGCUCAACACAGCGCGGCAAAGUGGCUGUGGCUAGACUGCCUCUCUGGAUUCCUCGUCACUCAGCAGGGCAUCUCUGAGAGAAGUGCC [U12C U73C A142G], 1.38; as for UACGUAGGUGGCUUUCCCCUGAUAGUGCUAAGGGGGCCUGGAAGUUUGGACUGGGCAGAGCUCAACACAGCGUGGCAAAGUGGCUGUGGCUAGACUGCCCCUCUGGAUUCCUCGUCACUCAGCAGGGCAUCUCUGGGAGAAAUGCC [U12C U100C A136G], 2.93.
As for UACGUAGGUGGCUUUCCCCUGAUAGUGCUAAGGGGGCCUGGAAGUUUGGACUGGGCAGAGCACAACACAGCGUGGCAAAGUGGCUGUGGCUAGACUGCCUCUCUGGAUCCCUCGUCACUCAGCAGGGCAUCUCUGAGAGAAAUGCC [U12C U62A U109C], the figure is 0.08.
Then UACGUAGGUGGCUUUCCCCUGAUAGUGCUAAGGGGGCCUGGAAGUUUGGACCGGGCAGAGCUCAACACAGCAUGGCAAAGUGGCUGUGGCUAGACUGCCUCUUUGGAUUCCUCGUCACUCAGCAGGGCAUCUCUGAGAGAAAUGCC [U12C U52C G72A C103U], with 1.74; and UACGUAGGUGGCUUUCCCCUGAUAGUGCUAAGGGGGCCUGGAAGUUUGGACUGGGCAGAGCUCAACACAGCGCGGCAAAGUGGCUGUGGCUAGACUGCCUCUCUGGAUUCCUCGCCACUCAGUAGGGCAUCUCUGAGAGAAAUGCC [U12C U73C U115C C123U], with 2.17; and UACGUAGGUGGCUUUCCCCUGAUAGUGCUAAGGGGGCCUGGAAGUUUGGACUGGGCAGAGCUCAACACAGCGUGGCAAAGUGGCUGCGGCUAGACUGCCUCUCUGGAUUCCUCGUCACUCAGCAGGGCAUCUCAGAGAGAAAUGCC [U12C U87C U134A], with 0.
For the variant UACGUAGGUGGCUUUCCCCUGAUAGUGCUAAGGGGGCCUGGAAGUUUGGACUGGGCAGAGCCCAACACAGCGUGGCAAAGUGGCUGUGGCUAGGCUGCCUCUCUGGAUUCCUCGUCACUCAGCAGGGCAUCUCUGAGAGAAAUGCC [U12C U62C A94G], the self-cleavage was determined as 0.
On to UACGUAGGUGGCUUUCCCCUGAUAGUGCUAAGGGGGCCUGGAAGUUUGGACUGGGCAGAGCUCAACACAGCGUGGCAAAGUGGCUGUGGCAAGACUGCCUCACUGGAUUCCUCGCCACUCAGCAGGGCAUCUCUGAGAGUAAUGCC [U12C U91A U102A U115C A140U], for which the self-cleavage was found to be 0.99.
Then UACGUAGGUGGCUUUCCCCUGAUAGUGCUAAGGGGGCCUGGAAGUUUGGACUGGGCAGAGCUCAACACAGCGUGGCAAAGUGGCUGUGGCUAGACUGCCUCCCUGGAUUCCUCGUCACUCAGCAGGGCAUCUCUGAGAGAAAUGCU [U12C U102C C146U], with 1.31; and UACGUAGGUGGCUUUCCCCUGAUAGUGCUAAGGGGGCCUGGAAGUUUGGACUGGGCAGAGCUCAACACAGCGUGGCAAAGUGGCUGAGGCUAGACCGCCUCUCUGGAUUCCUCGUCACUCUGCAGGGCAUCUCUGAGAGAAAUGCC [U12C U87A U96C A121U], with 0.
Turning to UACGUAGGUGGCUUUCCCCUGAUAGUGCUAAGGGGGCCUGGAAGUUUGGACUGGGCAGAGCUCAACACAGCGUGGCAAAGUGGCCGUGGCUAGAAUGCCUCUCUGGAUUCCUCGUCACUCAGCAGGGCAUCUCUGGGAGAAAUGCC [U12C U85C C95A A136G], the self-cleavage was found to be 0.14.
Regarding UACGUAGGUGGCUUUCCCCUGAUAGUGCUAAGGGGGCCUGGAAGUUUGGACUGGGCAGAGCUCAACACAGCGUGGCAAAGUGGCUGUGGCUAGACUGCCUCUCCGGAUUCCUCGUCACUCAGCUGGGCGUCUCUGAGAGAAAUGCC [U12C U104C A124U A129G], the self-cleavage came out at 2.3.
For UACGUAGGUGGCUUUCCCCUGAUAGUGCUAAGGGGGCCUGGAAGUUUGGACUGGGCAGAGCUCAACACAGCGUGGCAAAGAGGCUGUGGCUAGACUGCCUCUCUGGAUUCCUCGUCACUCAGCAGGGCAUCUCUAAGAGAAAUGCC [U12C U81A G135A], the self-cleavage was 2.01.
Consider UACGUAGGUGGCUUUCCCCUGAUAGUGCUAAGGGGGCCUGGAAGUUUGGACUGGGCAGAGCUCAACACAGCGUGGCAAAGUGGCUGUGGCUAGACCGCCUCACUGGAUUCCUCGUCACUCAGCAGGGCAUCCCUGAGAGAAAUGCC [U12C U96C U102A U132C], for which the self-cleavage came to 0.71.
As for UACGUAGGUGGCUUUCCCCUGAUAGUGCUAAGGGGGCCUGGAAGUUUGGACCGGGCAGAGCUCAACACAGCGUGGCAAAGUGGCUGUGGCUAGACUGCCUCUCUGGAUUCCUCGUCACUCAGCAGGGCAACUCUGAGAGAAAUGCC [U12C U52C U130A], the figure is 1.24.
As for UACGUAGGUGGCUUUCCCCUGAUAGUGCUAAGGGGGCCUGGAAGUUUGGACUGGGCAGAGCUCAACACAGCGCGGCAAAGUGGCUGUGGCUAGACUGCCUCUCUGGAUUCCUCGUCACUCAGCAGGGCAUCUCUGAGAGGAAUGCC [U12C U73C A140G], the figure is 0.51; as for UACGUAGGUGGCUUUCCCCUGAUAGUGCUAAGGGGGCCUGGAAGUUUGGACUGGGCAGAGCACUACACAGCGUGGCAAAGUGGCUGUGGCUAGACCGCCCCUCUGGAUUCCUCGUCACUCAGCAGGGCAUCUCUGAGAGAAAUGCC [U12C U62A A64U U96C U100C], 0.04.
Then UACGUAGGUGGCUUUCCCCUGAUAGUGCUAAGGGGGCCUGGAAGUUAGGACUGGGCAGAGCUCAACACAGCGUGGCAAAGUGGCUGUGGCUAGACUGCCUCUCUGGAUUCCUCGUCACUCAGCAGGGCAUCUCGGAGAGAAAUGCC [U12C U47A U134G], with 1.29; and UACGUAGGUGGCUUUCCCCUGAUAGUGCUAAGGGGGCCUGGAAGUUUGGACUGGGCAGAGCACAACACAGCGUGGCAAAGUGGCCGUGACUAGACUGCCUCUCUGGAUUCCCCGUCACUCAGCAGGGCAUCUCUGAGAGAAGUGCC [U12C U62A U85C G89A U112C A142G], with 0.05; and UACGUAGGUGGCUUUCCCCUGAUAGUGCUAAGGGGGCCUGGAAGUUUGGACCGGGCAGAGCCCAACACAGCGUGGCAAAGUGGCUGUGGCUAGACUGCCUCUCUGGAUUCCUCGUCACUCAGCAGGGCAUCUCUGAGAGAAAUGCC [U12C U52C U62C], with 0.52.
In the case of UACGUAGGUGGCUUUCCCCUGAUAGUGCUAAGGGGGCCUGGAAGUUUGGACUGGGCAGAGCCCAACACAGCGUGGCAAAGUGGCUGUGGCUAGACUGCCUCUCUGGGUUCCUCGUCACUCAGCAGGGUAUCUCUGAGAGAAAUGCC [U12C U62C A107G C128U], the self-cleavage turned out to be 0.06.
Then UACGUAGGUGGCUUUCCCCUGAUAGUGCUAAGGGGGCCUGGAAGUUUGGACUGGGCAGAGCUCAACACAGCGUGGCAAAGUGGCUGUGGCCAGACUGCCUCUCUGGAUUCCUCGUCACUCAGCAGGGCAUCUCUGUGAGAAAUGCC [U12C U91C A136U], with 0; and UACGUAGGUGGCUUUCCCCUGAUAGUGCUAAGGGGGCCUGGAAGUUUGGACUGGGCAGAGCUCAACACAGCGCGGCAAAGUGGCUGUGGCUAGACUGCCUCCCUGGAUUCCUCGACACUCAGCAGGGCAUCCCUGAGAGAAAUGCC [U12C U73C U102C U115A U132C], with 1.53.
Turning to UACGUAGGUGGCUUUCCCCUGAUAGUGCUAAGGGGGCCUGGAAGUUUGGACUGGGCAGAGCUCAACACAGCGUGGCAAAGUGGCUGAGGCUAGACUGCCCCUCUGGAUUCCUCGUCACUCUGCAGGGCAUCUCUGAGAGAAAUGUC [U12C U87A U100C A121U C145U], the self-cleavage was 0.17.
Take UACGUAGGUGGCUUUCCCCUGAUAGUGCUAAGGGGGCCUGGAAGUUUGGACUGGGCAGAGCUCAACACAGCGUGGCAAAGUGGCUGUGGCUAGACCGCCUCUCUGGAUUCCUCGUCCCUCAGCAGGGCAUCUCUGAGAGAAAUGCC [U12C U96C A117C]: the self-cleavage is 0.2.
As for UACGUAGGUGGCUUUCCCCUGAUAGUGCUAAGGGGGCCUGGAAGUUUGGACAGGGCAGAGCUCAACACAGCGUGGCAAAGUGGCUGUGGCUAGACUGCCUCUCUGGAUUUCUCGUCACUCAGCAGGGCAUCUCUGAGAGAAAUGCC [U12C U52A C110U], the self-cleavage was determined as 2.03.
As for UACGUAGGUGGCUUUCCCCUGAUAGUGCUAAGGGGGCCUGGAAGUUUGGACUGGGCAGAGCUCAACACAGCGUGGCAAAGUGGCCGUGGCUAGACUGCCUCUCUGGAUUCCUCGUCACUCAGCAGAGCAUCUCUGAGAGAAAUGCC [U12C U85C G126A], the figure is 1.31; as for UACGUAGGUGGCUUUCCCCUGAUAGUGCUAAGGGGGCCUGGAAGUUUGGACUGGGCAGAGCUCAACACAGCGUGGCAAAGUGGCUGUGGCUAGACUGCCCCUCUGGAUUCCUCGCCACUCAGCAGGGCAUCUCUGAGAGAAAUGCC [U12C U100C U115C], 1.62.
Then UACGUAGGUGGCUUUCCCCUGAUAGUGCUAAGGGGGCCUGGAAGUUUGGACUGGGCAGAGCUCAACACAGCGUGGCAAAGUGGCUGUGGCUAGACUGCCGCUCUGGAUUUCUCGUCACUCAGCAGGGCAUCUCUGAGAGAAAAGCC [U12C U100G C110U U143A], with 2.33.
Consider UACGUAGGUGGCUUUCCCCUGAUAGUGCUAAGGGGGCCUGGAAGUUUGGACUGGGCAGAGCUCAACACAGCGUGGCAAAGUGGCUGCGGCUAGACUGCCUCUCUGGAUUCCUCGUCACUCAGCAGGGCAUCUCUGAGAGAAAAGCC [U12C U87C U143A], for which the self-cleavage stood at 0.
Then UACGUAGGUGGCUUUCCCCUGAUAGUGCUAAGGGGGCCUGGAAGUUUGGACUGGGCAGAGCUCAACACAGCGUGGCAAAGAGGCUGUGGCUAGACUCCCUCUCUGGAUUCCUCGUCACUCAGCAGGGCAUCUCUGAGAGAAAUGCC [U12C U81A G97C], with 0.97.
